Data on two substances can be found in article PMC4402527.

Amino acid sequences for entries named in this document (tags omitted).
UniProt P60842: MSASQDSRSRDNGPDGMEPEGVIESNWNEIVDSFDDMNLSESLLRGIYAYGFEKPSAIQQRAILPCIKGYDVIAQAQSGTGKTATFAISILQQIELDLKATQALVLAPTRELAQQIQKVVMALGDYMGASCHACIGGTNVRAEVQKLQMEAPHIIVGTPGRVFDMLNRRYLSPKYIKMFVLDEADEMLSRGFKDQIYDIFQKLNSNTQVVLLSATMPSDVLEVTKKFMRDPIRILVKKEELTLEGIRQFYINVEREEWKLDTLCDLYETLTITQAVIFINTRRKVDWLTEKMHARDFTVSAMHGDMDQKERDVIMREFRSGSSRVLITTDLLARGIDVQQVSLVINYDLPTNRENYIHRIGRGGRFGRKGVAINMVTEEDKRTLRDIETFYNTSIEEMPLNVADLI
UniProt P55884: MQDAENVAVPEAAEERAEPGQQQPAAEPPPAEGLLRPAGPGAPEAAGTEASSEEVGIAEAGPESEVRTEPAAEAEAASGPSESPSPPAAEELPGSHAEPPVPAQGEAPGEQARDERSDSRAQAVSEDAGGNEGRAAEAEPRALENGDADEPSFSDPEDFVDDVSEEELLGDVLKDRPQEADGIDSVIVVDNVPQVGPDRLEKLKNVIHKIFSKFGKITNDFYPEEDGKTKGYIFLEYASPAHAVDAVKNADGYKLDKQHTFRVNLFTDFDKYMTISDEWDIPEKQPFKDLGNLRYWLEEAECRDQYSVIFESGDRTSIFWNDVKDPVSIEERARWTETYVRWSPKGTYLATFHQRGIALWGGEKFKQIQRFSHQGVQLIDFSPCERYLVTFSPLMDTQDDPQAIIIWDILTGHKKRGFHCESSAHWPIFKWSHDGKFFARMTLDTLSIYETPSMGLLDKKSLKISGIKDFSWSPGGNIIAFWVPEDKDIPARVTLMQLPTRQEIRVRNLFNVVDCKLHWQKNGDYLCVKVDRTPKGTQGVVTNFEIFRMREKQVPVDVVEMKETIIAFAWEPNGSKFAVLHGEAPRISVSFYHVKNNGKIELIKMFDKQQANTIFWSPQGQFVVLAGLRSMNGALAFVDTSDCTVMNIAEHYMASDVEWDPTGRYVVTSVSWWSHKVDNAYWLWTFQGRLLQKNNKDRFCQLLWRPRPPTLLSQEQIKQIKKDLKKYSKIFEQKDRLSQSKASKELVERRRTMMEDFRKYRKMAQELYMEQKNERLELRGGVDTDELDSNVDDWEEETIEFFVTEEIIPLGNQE

For this test, the target named is T1, Flag-DAP5 E862Q (human) (UniProt P78344).
T1 sequence: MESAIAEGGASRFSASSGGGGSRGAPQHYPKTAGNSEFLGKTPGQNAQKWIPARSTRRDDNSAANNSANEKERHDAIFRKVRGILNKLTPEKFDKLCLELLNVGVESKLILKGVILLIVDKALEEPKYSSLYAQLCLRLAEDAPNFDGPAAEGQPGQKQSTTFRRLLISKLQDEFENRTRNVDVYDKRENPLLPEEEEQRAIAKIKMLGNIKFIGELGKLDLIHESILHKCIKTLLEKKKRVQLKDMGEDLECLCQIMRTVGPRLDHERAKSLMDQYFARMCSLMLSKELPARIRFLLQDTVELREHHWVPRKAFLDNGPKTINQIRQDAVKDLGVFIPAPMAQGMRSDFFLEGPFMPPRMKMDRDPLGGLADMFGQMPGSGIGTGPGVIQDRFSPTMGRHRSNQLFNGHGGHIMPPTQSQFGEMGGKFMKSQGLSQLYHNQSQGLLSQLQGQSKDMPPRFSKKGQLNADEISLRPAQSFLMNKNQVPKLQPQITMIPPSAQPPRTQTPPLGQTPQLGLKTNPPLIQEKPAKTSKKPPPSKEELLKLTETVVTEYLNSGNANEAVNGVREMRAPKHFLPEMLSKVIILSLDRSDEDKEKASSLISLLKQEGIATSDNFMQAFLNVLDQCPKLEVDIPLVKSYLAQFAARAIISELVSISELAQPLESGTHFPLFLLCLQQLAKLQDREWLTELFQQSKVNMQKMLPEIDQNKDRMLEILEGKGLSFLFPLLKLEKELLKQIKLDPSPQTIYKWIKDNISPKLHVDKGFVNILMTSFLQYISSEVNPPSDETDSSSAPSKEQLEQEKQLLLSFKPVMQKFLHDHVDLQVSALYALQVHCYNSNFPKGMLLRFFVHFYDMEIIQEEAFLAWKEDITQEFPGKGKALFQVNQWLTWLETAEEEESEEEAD
As to the kind of experiment: co-IP; HEK293T transfected 24 h with Flag-tagged DAP5 constructs; lysis in buffer B (20 mM HEPES-KOH pH 7.6, 100 mM KCl, 0.5 mM EDTA, 0.4% NP-40, 20% glycerol); anti-Flag-conjugated beads, elution with Flag peptide; western blot of endogenous factors. On the technique in general: A western blot detects proteins with antibodies after separation by electrophoresis.

Results are given in words; binding and its absence hold for the method and conditions named. In cells and extracts the contact can be indirect. Some results given as binding are weak or reduced against the parent protein; the word gives no strength. Sequences can lack the tags named with a protein.

Consider eIF4AI (from UniProt P60842 1-406), for which the binding entry is listed as “binds”.
As for eIF3S9 (from UniProt P55884 1-814), the entry is “binds”.
